Results on three compounds are retold here after patent publication US9260505B2, “Methods for screening for binding partners of G-protein coupled receptors” (Heptares Therapeutics Limited, priority 2007, dated 2016).

Where two headings read alike, the source gives them in different places.

The target of series [1] is T1, βAR34-424 (Meleagris gallopavo, UniProt P07700, C116L). The protocol:
FIGS. 8A and 8B Saturation binding assays of membranes of βAR34-424 and βAR-m23. Binding assays were performed as described in “Methods” using [^3H]-dihydroalprenolol (DHA) as radioligand; βAR34-424 (a) and βAR-m23 (b). Scatchard plots are shown as insets along with the corresponding values for Bmax and KD. Data points are from duplicates of two independent experiments for each protein.
[…] . This is consistent with the observation that none of the mutations in βAR-m23 correspond with amino acids believed to be implicated in ligand binding. […] . From a crystallisation perspective, this is an added bonus to thermostabilisation, because it is essential to have a conformationally homogeneous protein population for the production of diffraction-quality crystals.
Receptors were eluted in 2×100 μl of buffer (0.4 M NaCl, 1 mM EDTA, 250 mM imidazole pH 8, plus the relevant detergent). […] .
Non-specific binding was determined in the presence of 1 μM of s-propranolol. […] .

The target in series [2] is T1, βAR34-424. Kind of series: biochemical. The format is binding, turkey.
Series [3] can be described thus: Thermostability of detergent-solubilised βAR34-424 and mutants ([3H]-DHA binding after heating 30 min).

As usually defined, the Kd is the concentration at which binding is half-saturated. Read a high Kd as a looser complex. Take “1-[4,6-propyl-^3H]-dihydroalprenolol [[^3H]-dihydroalprenolol]”: the Kd was found to be 2.8 ± 0.1 nM on βAR34-424 [1] (membranes, n=2) and 3.7 nM on βAR34-424 [1] (semipurified receptor).

For orientation: EC50 means the concentration needed to bring the measured effect to its halfway point. High values mean a need for much substance, low ones an effect from little substance. Take `C=CCc1ccccc1OC[C@@H](O)CNC(C)C` [alprenolol]: the 50% effective concentration (EC50) on βAR34-424 [2] is 78 nM.

For “βAR34-424: truncated turkey β1 adrenergic receptor, residues 34-424, C116L, C-terminal His10; parent receptor”, in series [3] (antagonist bound versus without antagonist), the “increase in Tm with bound antagonist” value turned out to be 6 °C. Also, in series [3] (apo-state heated 30 min, E. coli expressed, DDM-solubilised, mean ± S.E. from duplicates), the Tm is 31.7 ± 0.1 °C. Besides, the “predicted Tm” value in series [3] (in NG, extrapolated from about 20° C. difference) is “about 5 °C”. Further, in series [3] (resin washed with OG, NG or LDAO), the “active receptor eluting from resin” value was “no active receptors”.
